In article PMC4336329 (PLoS ONE, 2015):
Hit rate of the full screen: of about 310,000 compounds, about 2,200 (0.71%) showed an effect of 50% or more. Effects have a minus sign here. This is one part of the list.

These compounds were tested against human ether-à-go-go-related gene (hERG) potassium channel (human, UniProt Q12809) (assay: primary screen, population patch clamp on CHO cells stably expressing hERG).
Chain of human ether-à-go-go-related gene (hERG) potassium channel (Q12809 whole entry, looked up): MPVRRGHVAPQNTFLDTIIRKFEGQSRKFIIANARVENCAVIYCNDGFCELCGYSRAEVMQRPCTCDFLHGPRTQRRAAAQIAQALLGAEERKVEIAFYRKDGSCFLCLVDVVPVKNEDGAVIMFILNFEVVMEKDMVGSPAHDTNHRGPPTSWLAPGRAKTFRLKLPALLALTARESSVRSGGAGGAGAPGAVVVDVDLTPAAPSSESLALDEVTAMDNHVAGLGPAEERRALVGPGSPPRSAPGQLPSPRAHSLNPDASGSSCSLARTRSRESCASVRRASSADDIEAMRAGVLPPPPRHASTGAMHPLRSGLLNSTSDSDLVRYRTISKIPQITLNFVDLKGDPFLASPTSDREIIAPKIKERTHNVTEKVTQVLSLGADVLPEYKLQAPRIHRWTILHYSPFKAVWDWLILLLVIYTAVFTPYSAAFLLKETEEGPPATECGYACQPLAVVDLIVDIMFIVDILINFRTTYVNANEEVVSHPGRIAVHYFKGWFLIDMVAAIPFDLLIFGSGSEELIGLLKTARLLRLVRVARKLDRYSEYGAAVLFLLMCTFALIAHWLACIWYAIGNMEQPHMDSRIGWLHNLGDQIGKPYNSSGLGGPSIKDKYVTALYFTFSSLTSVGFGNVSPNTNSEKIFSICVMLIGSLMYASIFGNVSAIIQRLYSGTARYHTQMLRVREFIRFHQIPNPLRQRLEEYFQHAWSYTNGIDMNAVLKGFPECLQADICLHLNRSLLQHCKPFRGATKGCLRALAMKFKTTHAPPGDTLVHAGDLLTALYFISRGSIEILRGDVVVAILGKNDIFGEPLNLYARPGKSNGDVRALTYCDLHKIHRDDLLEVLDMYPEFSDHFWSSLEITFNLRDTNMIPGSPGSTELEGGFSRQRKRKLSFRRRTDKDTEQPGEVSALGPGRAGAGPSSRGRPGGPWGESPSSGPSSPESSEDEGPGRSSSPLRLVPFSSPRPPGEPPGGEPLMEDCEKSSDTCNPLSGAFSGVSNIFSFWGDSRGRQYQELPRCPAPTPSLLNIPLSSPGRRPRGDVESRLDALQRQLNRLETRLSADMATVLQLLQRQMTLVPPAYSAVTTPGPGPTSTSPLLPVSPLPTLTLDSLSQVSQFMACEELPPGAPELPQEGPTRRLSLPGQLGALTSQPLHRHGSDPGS

Compared with CCOC(=O)c1nnc(-c2ccccc2)nc1NCc1ccc(Cl)cc1, CN(CC(=O)Nc1cccc(F)c1)C(=O)c1cn(-c2ccccc2)nc1-c1ccc(Cl)cc1 is lower in “hERG current change (%, negative = inhibition) at 1uM” value: 15.9% for the first, 5.04% for the second.

Going from Cc1ccccc1NS(=O)(=O)c1ccc2c(c1)oc(=O)n2C to Cc1ccccc1NC(=O)Cn1nc(C)n2cccc2c1=O, the “hERG current change (%, negative = inhibition) at 1uM” value rises from 7.94% to 9.18%.

Compared with CCOc1cc(OCC)cc(C(=O)Nc2cccnc2)c1, Cc1ccc(OCC(=O)NNC(=O)c2cccnc2)cc1C is higher in “hERG current change (%, negative = inhibition) at 1uM” value: -1.3% for the first, 5.52% for the second.

Compared with COc1cc(-n2c(=O)c3ccccc3n(CC(=O)OCc3ccccc3)c2=O)cc(OC)c1OC, COc1cc(OC)cc(C(=O)Nn2cc(C(=O)Nc3c(F)cccc3F)c3ccccc3c2=O)c1 is lower in “hERG current change (%, negative = inhibition) at 1uM” value: 16% for the first, 3.74% for the second.

Going from CCCOc1ccc(/C(CC)=N/NC(=O)C2(C)CC2(Br)Br)cc1 (stereo not shown) to CCc1ccc(OCC(=O)N(CC)CC)cc1, the “hERG current change (%, negative = inhibition) at 1uM” value rises from -4.78% to 5.85%.

Going from CCCC(O)(CCC)C(=O)NN(C(=O)OC)c1ccccc1 to Cc1ccccc1OCC(=O)OCC(=O)Nc1ncc(Cl)c(C)c1Cl, the “hERG current change (%, negative = inhibition) at 1uM” value falls from 19.2% to 6.19%.

Going from COC(=O)c1cc(NS(=O)(=O)c2ccc(Cl)c(N3C(=O)c4ccc(C(=O)O)cc4C3=O)c2)cc(C(=O)OC)c1 to COc1cc2c(cc1OC)CN(C(=O)c1ccccc1C(=O)O)CC2, the “hERG current change (%, negative = inhibition) at 1uM” value falls from 14.7% to 13.5%.

Going from CCC[C@@H]1CCCO[C@@](C(=O)NCc2ccc(S(C)(=O)=O)cc2)(C(F)(F)F)C1 to Cn1cc(C(=O)NCc2ccc(F)cc2)cn1, the “hERG current change (%, negative = inhibition) at 1uM” value falls from 12.4% to 3.95%.

Compared with CC(C)CCOc1cccc(OCC(=O)N(C)C2CCS(=O)(=O)C2)c1 (stereo not shown), CCOc1ccc(-c2ccc(SCC(=O)NCC3CCCO3)nn2)cc1 (stereo not shown) is lower in “hERG current change (%, negative = inhibition) at 1uM” value: 13.7% for the first, 9.18% for the second.

First: CSc1nncc(-c2ccc(F)c(F)c2)n1
Second: Cc1nc2ncnn2c(C)c1Cc1cccc(F)c1
The “hERG current change (%, negative = inhibition) at 1uM” value of the first is higher: 17% for the first, -2.87% for the second.

First: Fc1ccccc1N1CCN(C2CCN(Cc3c[nH]c4ccccc34)CC2)CC1
Second: O=C(CSc1nc2ccccc2c(=O)n1-c1ccccc1)N1CCCc2ccccc21
The “hERG current change (%, negative = inhibition) at 1uM” value of the first is lower: -13.9% for the first, 5.45% for the second.

First: CC1=CC(C)(C)n2c(O)c(N=N)c3c(C)c(C)cc1c32
Second: Cc1cc(C)c(S(=O)(=O)Nc2ccncc2)cc1C
The “hERG current change (%, negative = inhibition) at 1uM” value of the first is lower: 4.68% for the first, 13.7% for the second.

First: O=C1C2C3C=CC(C3)C2C(=O)N1c1cccc(N2C(=O)C3C4C=CC(C4)C3C2=O)n1 (stereo not shown)
Second: O=C(Cn1cnc2ccccc2c1=O)NNC(=O)c1cccc([N+](=O)[O-])c1
The “hERG current change (%, negative = inhibition) at 1uM” value of the first is lower: -0.282% for the first, 10.8% for the second.

First: O=C(NCC1CCCO1)c1onc(CSc2ccccc2)c1C(=O)O (stereo not shown)
Second: CC(C)c1cc(C(=O)NCc2ccco2)no1
The “hERG current change (%, negative = inhibition) at 1uM” value of the first is higher: 15.5% for the first, 11% for the second.

Compared with CCC(=O)Nc1cc(Cl)ccc1C(=O)O, COc1ccc(Cl)cc1N(CC(=O)Nc1ccc2c(c1)OCCO2)S(C)(=O)=O is higher in “hERG current change (%, negative = inhibition) at 1uM” value: -0.571% for the first, 11.4% for the second.

Compared with C=CCC(C(=O)OC)(C(=O)OC)c1ccc([N+](=O)[O-])cc1[N+](=O)[O-], CCC(C)c1ccc(NC(=O)NCCN2CCCCC2)cc1 (stereo not shown) is lower in “hERG current change (%, negative = inhibition) at 1uM” value: 6.08% for the first, -9.2% for the second.

First: Cc1nc(NC(=O)C23CC4CC(CC(C4)C2)C3)sc1Cc1ccc2c(c1)OCO2
Second: Cc1cnc(NC(=O)Cc2ccc(Br)cc2)s1
The “hERG current change (%, negative = inhibition) at 1uM” value of the first is lower: 13.4% for the first, 15.3% for the second.

First: COC(c1ccccc1)c1nnc(CCC(=O)N(C)Cc2cccc(-n3cccn3)c2)o1 (stereo not shown)
Second: O=c1[nH]c(SCc2ccccc2)nc2c1cnn2-c1ccc(F)cc1
The “hERG current change (%, negative = inhibition) at 1uM” value of the first is lower: 4.63% for the first, 4.7% for the second.

Going from CCOc1ccc(NC(=O)c2sc3nc(N4CCOCC4)c4c(c3c2N)CCCC4)cc1 to Cc1ccc(Cn2cnc3sc4c(c3c2=O)CCC4)c(C)c1, the “hERG current change (%, negative = inhibition) at 1uM” value falls from 16.3% to 1.95%.

Going from Cc1ccc(Nc2nnc(SC3CCOC3=O)s2)c(C)c1 (stereo not shown) to O=c1[nH]c(=S)n(C2CC2)c(O)c1C=NCc1ccc(F)cc1, the “hERG current change (%, negative = inhibition) at 1uM” value rises from -2.44% to 17.4%.

Compared with O=C(COn1nnc2ccc(C(F)(F)F)cc21)Nc1c(Cl)cccc1Cl, COc1ccc(CCC(C)N2CCC(Oc3ccc(C(=O)N4CCCC4)cc3)CC2)cc1 (stereo not shown) is lower in “hERG current change (%, negative = inhibition) at 1uM” value: 4.44% for the first, -28.5% for the second.

In the case of COCCCNC(=S)NC1CC2CCCC(C1)N2Cc1cccs1 (stereo not shown), the “hERG current change (%, negative = inhibition) at 1uM” value was 1.43%.
